# PubChem BioAssay (Tox21)
# Results filed as inconclusive are left out. Unless noted, calls follow the shape of the dose curve; as a rule, active = well fitted curve in the direction sought with a large enough effect in the repeat runs; inconclusive = weak or mixed curves; inactive = no such curve, though single readings can be large; an effect the other way counts as inactive or inconclusive. The source holds several records for some structures; these can differ, active in one and inactive in another. Not every entry of the source has a single result; some have several. They are shown here; other results are not. The source may hold further records. The records of an entry are repeats (runs, samples, wells, individuals or studies). A tag in brackets gives the origin of a value. Letters count within one entry.
# Experiments:
# [1] = qHTS assay to identify small molecule agonists of the constitutive androstane receptor (CAR) signaling pathway - cell viability counter screen (AID 1224836); details: HepG2-CYP2B6-hCAR viability, CellTiter-Fluor, 23 h, PK11195 added to every well; series mostly up to 42.5 µM; also: nearly all actives have a fitted effect of over 45% in size
# Outline: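 Compound titrations (15 concentrations) went onto HepG2-CYP2B6-hCAR cells 4 h after seeding, alongside PK11195 at a final 0.75 uM; a 23 h, 37 C/5% CO2 incubation preceded CellTiter-Fluor viability measurement.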
# [2] = qHTS assay to identify small molecule antagonists of the constitutive androstane receptor (CAR) signaling pathway - cell viability counter screen (AID 1224837); details: HepG2-CYP2B6-hCAR viability, CellTiter-Fluor, 23 h, co-treated with 50 nM CITCO; series mostly up to 42.5 µM; also: nearly all actives have a fitted effect of over 45% in size
# Outline: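 Fluorescence from CellTiter-Fluor served as the viability signal. Human hepatoma HepG2 cells stably bearing hCAR and CYP2B6-2.2kb received compound plus CITCO (50 nM final) for 23 hr.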
# [3] = qHTS assay to identify small molecule antagonists of the estrogen receptor alpha (ER-alpha) signaling pathway using the BG1 cell line in the presence of 0.1 nM 17-beta-estradiol - cell viability counter screen (AID 1259241); details: VM7Luc4E2 (BG1) viability, CellTiter-Fluor protease, 22 h, 0.1 nM estradiol agonist added; series mostly up to 92.4 µM; also: nearly all actives have a fitted effect of over 40% in size
# Text: National Center for Advancing Translational Sciences [NCATS]
# NIH Chemical Genomics Center [NCGC]
# U.S. Environmental Protection Agency [EPA]
# National Institutes of Environmental Health Sciences [NIEHS]
# National Toxicology Program [NTP]
# U.S. Food and Drug Administration [FDA]
# Estrogen receptor (ER), a member of the nuclear hormone receptor plays an important role in development, metabolic homeostasis and reproduction. Two subtypes of ER, ER-alpha and ER-beta, have similar expression patterns with some uniqueness in both types. Endocrine disrupting chemicals (EDCs) and their interactions with steroid hormone receptors like ER causes disruption of normal endocrine function. Therefore, it is important to understand the effect of environmental chemicals in ER signaling pathway. For identifying ER antagonists, VM7Luc4E2 cell line was used to screen against Tox21 compound libraries. […]
# VM7Luc4E2 cells were cultured in phenol red free assay medium containing 10% charcoal stripped FBS for 5 days prior to the assay. […] For cytotoxicity assay, 1 uL of CellTiter-Fluor reagent (Promega Corporation, Madison, WI) was added to each well using the FRD and after 30 min incubation at 37C and 5% CO2, The fluorescence intensity was measured using ViewLux plate reader (PerkinElmer, Shelton, CT).
# [4] = qHTS assay to identify small molecule antagonists of the progesterone receptor (PR) signaling pathway - cell viability counter screen (AID 1346798); details: PR-UAS-bla HEK293T viability, CellTiter-Glo luminescence, 16 h; series mostly up to 92.4 µM; also: nearly all actives have a fitted effect of over 50% in size
# Outline: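 Measures cytotoxicity in parallel with the PR antagonist reporter read: HEK293T PR-UAS-bla cells get compound and R5020 for 16 hr, and remaining viable cells are quantified by CellTiter-Glo luminescence.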
# [5] = qHTS assay for small molecules that induce genotoxicity in human embryonic kidney cells expressing luciferase-tagged ATAD5 - cell viability (AID 651634; calls by dose curve; also: nearly all actives have a fitted effect of over 25% in size); details: HEK293T ATAD5-luc cells viability, CellTiter-Fluor, 15.5 h; series mostly up to 83.3 µM
# Outline: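 Live-cell protease activity (CellTiter-Fluor, fluorescence) indicates viability. HEK293T cells with luciferase-tagged ATAD5; 15.5 hr compound treatment at 37C.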
# [6] = A CellTox Green Cytotoxicity Assay to monitor cytotoxicity in HEK293 cells - 24 hour (AID 1224875); details: CellTox Green fluorescence; series mostly up to 76.8 µM; also: nearly all actives have a fitted effect of over 45% in size
# Outline: (§1)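 Each value comes from one timepoint of a single continuous run in which HEK293 cells with CellTox Green were exposed to compound for up to 40 h at 37 C, dye fluorescence rising with cell death.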
# [7] = A CellTox Green Cytotoxicity Assay to monitor cytotoxicity in HEK293 cells - 16 hour (AID 1224888); details: CellTox Green fluorescence; series mostly up to 76.8 µM; also: nearly all actives have a fitted effect of over 35% in size
# Outline: as §1
# Potency is read from the fitted curve at half-maximal effect.
smiles,measurement,setting,value
O=c1[nH]cc(F)c(=O)[nH]1,Potency,[1],active: 17.9 µM [sample A] and inactive [sample B] and inactive [sample C]
same,Potency,[2],active: 20.1 µM [sample A] and inactive [sample B] and inactive [sample C]
same,Potency,[3],active: 22.5 µM [sample A] and inactive [sample B] and inactive [sample C]
same,Potency,[4],active: 17.9 µM [sample A] and inactive [sample B] and inactive [sample C]
CN(C)C(=S)SC(=S)N(C)C,Potency,[5],active: 5.59 µM [sample A] and inactive [sample B]
CCCCCCCCCCCCCCCC[N+](C)(C)Cc1ccccc1,Potency,[2],active: 55.5 µM [sample A] and inactive [sample B]
CCCCCCc1ccc(O)cc1O,Potency,[6],active: 49.1 µM [sample A] and active: 49 µM [sample B] and inactive [sample C]
Cc1c(C(=O)O)c(O)cc2c1C(=O)c1c(O)c([C@@H]3O[C@H](CO)[C@@H](O)[C@H](O)[C@H]3O)c(O)c(O)c1C2=O,Potency,[1],active: 21.7 µM [sample A] and inactive [sample B]
same,Potency,[2],active: 37.6 µM [sample A] and inactive [sample B]
CC1(C)O[C@@H]2C[C@H]3[C@@H]4CCC5=CC(=O)C=C[C@]5(C)[C@@]4(F)[C@@H](O)C[C@]3(C)[C@]2(C(=O)CO)O1,Potency,[6],inactive [sample A] and inactive [sample B] and active: 9.52 µM [sample C]
same,Potency,[7],inactive [sample A] and inactive [sample B] and active: 9.52 µM [sample C]
